According to PubChem BioAssay AID179 (DTP/NCI, 2004):
The source holds more than one record for some entries. Only these are listed.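 The calls were made as follows: active = compounds giving half or more protection of infected cells from virus-caused growth loss, again on retest; inactive = the rest.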 There may be further records. The values listed for one entry are repeats in other runs, samples, wells, individuals or studies. A tag in brackets gives the origin of a value. The letters are not those of the source and start again with each entry. Where a SMILES comes first, the peptide text is derived from it. The star is where a group is joined. Boc = CC(C)(C)OC(=O)*

Test system: CEM cells HIV-1 protection, formazan growth assay
Assay: NCI AIDS Antiviral Assay
Details: for IC50: measured here: growth of uninfected CEM cells
Method in brief: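 Category rules: moderately active means at least 50% protection on retest, and confirmed active means 100% protection reproducibly. The underlying data came from a formazan growth assay in HIV-1-infected CEM cells.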

Row | SMILES | IC50 | EC50 | also measured
1 | CN(C)CC1CCCC(CN2CCCCC2)C1=O (stereo not given) |  |  | outcome: active [sample A] and inactive [sample B]
2 | COC(=O)C(C)NC(=O)C(CCSC)NC(=O)C(Cc1ccccc1)NC(=O)OC(C)(C)C (stereo not drawn) (Boc-Phe-Met-Ala-OMe; configuration not given here) | 9.77 µM [sample A] and > 200 µM [sample B] |  | 
3 | COc1ccc(-c2nc(SC3OC(COC(C)=O)C(OC(C)=O)C(OC(C)=O)C3OC(C)=O)n(C3OC(COC(C)=O)C(OC(C)=O)C(OC(C)=O)C3OC(C)=O)c(=O)c2C#N)cc1 (stereo not given) |  | > 100 µM [sample A] and 9.55 µM [sample B] | 
4 | Cc1nc(N)nc(N)c1-c1ccc(Cl)c(Cl)c1 | 79.4 nM [sample A] and 1.2 µM [sample B] |  | 
5 | CCOC(=O)/C=C/SCCCC(=O)O |  | > 1.15 mM [sample A] and 85.1 µM [sample B] | 
